# Source: publication PMC4336329 (PLoS ONE, 2015)
# Among all 310,000 compounds or so, about 14,000 (4.5%) showed an effect of 50% or more. The effect is printed as a negative number. The list shows a part of the results.
# Target: human ether-à-go-go-related gene (hERG) potassium channel (human, UniProt Q12809)
# Assay: primary screen, population patch clamp on CHO cells stably expressing hERG
# 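Also: peak tail current of the secondary pulse compared with the same well before compound.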
# Sequence of human ether-à-go-go-related gene (hERG) potassium channel (Q12809 whole entry, looked up): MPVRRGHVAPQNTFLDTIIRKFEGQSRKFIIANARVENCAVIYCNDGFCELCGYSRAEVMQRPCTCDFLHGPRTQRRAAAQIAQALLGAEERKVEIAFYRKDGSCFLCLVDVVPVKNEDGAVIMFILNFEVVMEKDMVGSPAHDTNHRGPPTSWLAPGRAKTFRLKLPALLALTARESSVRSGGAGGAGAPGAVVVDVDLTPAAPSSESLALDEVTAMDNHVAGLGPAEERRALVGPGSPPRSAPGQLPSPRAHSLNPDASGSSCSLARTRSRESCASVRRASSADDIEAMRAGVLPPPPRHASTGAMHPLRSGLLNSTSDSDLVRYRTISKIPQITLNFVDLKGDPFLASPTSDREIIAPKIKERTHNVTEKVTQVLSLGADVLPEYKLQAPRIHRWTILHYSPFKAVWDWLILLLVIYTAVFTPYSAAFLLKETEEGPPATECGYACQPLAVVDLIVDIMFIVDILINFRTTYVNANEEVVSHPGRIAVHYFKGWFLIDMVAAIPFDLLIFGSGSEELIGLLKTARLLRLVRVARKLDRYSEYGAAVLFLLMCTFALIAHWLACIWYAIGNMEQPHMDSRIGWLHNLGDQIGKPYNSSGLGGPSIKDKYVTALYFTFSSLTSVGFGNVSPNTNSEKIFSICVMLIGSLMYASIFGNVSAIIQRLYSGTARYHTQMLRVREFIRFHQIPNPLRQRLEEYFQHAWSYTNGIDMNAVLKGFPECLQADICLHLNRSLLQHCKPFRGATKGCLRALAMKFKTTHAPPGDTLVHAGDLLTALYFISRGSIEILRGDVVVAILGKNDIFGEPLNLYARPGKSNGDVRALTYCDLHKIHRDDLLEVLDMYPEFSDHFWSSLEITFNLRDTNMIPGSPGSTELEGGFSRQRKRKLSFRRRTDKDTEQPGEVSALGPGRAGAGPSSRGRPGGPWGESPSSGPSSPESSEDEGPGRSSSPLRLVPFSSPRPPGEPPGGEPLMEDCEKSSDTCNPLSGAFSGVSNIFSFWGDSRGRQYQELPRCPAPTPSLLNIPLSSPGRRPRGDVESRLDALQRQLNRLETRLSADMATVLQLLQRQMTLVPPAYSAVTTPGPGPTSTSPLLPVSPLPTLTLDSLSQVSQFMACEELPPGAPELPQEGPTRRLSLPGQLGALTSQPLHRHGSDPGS
row,Compound,"hERG current change (%, negative = inhibition) at 10uM"
1,CCn1nc(NC(=O)c2ccncc2)c2cc3ccccc3nc21,-12%
2,C=CCn1c(N)c(C(=O)Nc2ccc(C)cc2)sc1=S,10.7%
3,Cc1cc(=O)n2c3ccccc3n(CC(O)CN3CCN(Cc4ccccc4)CC3)c2c1C#N (stereo not shown),-62.8%
4,CC(C)[C@H](NC(=O)OC(C)(C)C)c1nnc(S(=O)(=O)Cc2c(F)cccc2Cl)o1,-6.28%
5,O=C1C=C(c2ccc3c(c2)oc2ccccc23)C[C@@H](c2ccc(Cl)cc2)C1,16.3%
6,CCOC(=O)N1CCN(CC(=O)Nc2ccc(F)c(F)c2)CC1,-62.4%
7,O=C(COC(=O)Cc1cccc(C(F)(F)F)c1)NCc1ccco1,3.97%
8,Cc1ccc(/C=N/NC(=O)c2ccc(N(C)S(=O)(=O)c3ccccc3)cc2)cc1,-28%
9,O=C(O)Cn1c(O)c(C=Nc2ccccc2)sc1=S [14736554],9.85%
10,CN1CCN(c2ccccc2NC(=O)c2ccc(-c3ccc(Cl)c(Cl)c3)o2)CC1,-3.73%
11,COc1ccccc1CNCc1cc(OC)c(OC)c(OC)c1.O=C(O)C(=O)O,15.2%
12,Cc1csc(N2CCN(c3cc4c(cc3Cl)nc(-c3ccncc3)n4CCCN3CCCC3)CC2)n1,-64.8%
13,COc1cccc(CN2CCC(n3nccc3NC(=O)CCCc3ccccc3)CC2)c1O,-75.9%
14,CONC(=O)C1CCN(C(=O)OCc2ccccc2)CC1,17.7%
15,CCn1c(O)c(/C=C2\C=NN=C2c2ccccc2)sc1=S,23.4%
16,COc1ccc(C(=O)Nc2cc(OC)c(Cl)cc2OC)cc1,-15.6%
17,CCCSc1nnc2c(n1)OC(c1cccn1C)N(C(C)=O)c1ccccc1-2 (stereo not shown),-24.9%
18,CN(C)S(=O)(=O)N1CCN(c2cc(Cl)ccc2Cl)CC1,-8.38%
19,O=C(Nc1ccccc1C(=O)N1CCOCC1)C1CCCO1 (stereo not shown),7.15%
20,Cc1csc(N2CCCC2c2nc3cc(Cl)c(N4CCCCC4)cc3n2CCOCCO)n1 (stereo not shown),-47.3%
21,O=c1c2oc3ccccc3c2ncn1Cc1ccccc1Cl,15.1%
22,CCOC(=O)C1CCN(C(=O)CCNC(=O)Cn2cnc3ccccc3c2=O)CC1,10.7%
23,COc1ccc(C2C(C(=O)N3CC(C)CC(C)C3)c3ccccc3C(=O)N2C)cc1 (stereo not shown),9.43%
24,CCSc1nnc(-c2ccc(OC)cc2)o1,3.35%
25,CC(=O)c1c(C)[nH]c(C(=O)NCc2ccco2)c1C,-3.14%
26,Cc1ccc(CNC(=O)CCN2C(=O)[C@@H]3Cc4ccccc4CN3C2=O)cc1,-40.5%
27,O=C1CSC(c2cccc(F)c2)N1c1ccc(O)cc1 (stereo not shown),14.9%
28,CC(C)C[C@H](NC(=O)N1CC(=O)Nc2ccccc21)C(=O)N[C@@H](Cc1c[nH]c2ccccc12)C(=O)O,15.1%

row,Compound,"hERG current change (%, negative = inhibition) at 10uM"
1,Cc1csc2ncc(C(=O)N(Cc3ccccc3)c3ccccn3)c(=O)n12,7.61%
2,Cc1ccc(S(=O)(=O)N2CCC(C(=O)Nc3ccccc3N3CCCC3)CC2)cc1,-10.6%
3,CCOP(=O)(OCC)Oc1cc(C)c(N(C)C)c(C)c1,-4.26%
4,CN(C(=O)c1ccc2c(c1)CCO2)C(C)(C)C,5.7%
5,COc1ccc2c(CCNC(=O)/C=C/c3ccc(OC)c(OC)c3)c[nH]c2c1,14.6%
6,CC1(C)Cc2cccc(C(=O)Nc3ccc(Cl)cc3)c2O1,4.88%
7,COc1ccc(-c2noc(CN(C)C(=O)Nc3ccccc3)n2)cc1,13.6%
8,O=C(O)C1CCN(C(=O)COc2ccc3c4c(c(=O)oc3c2)CCCC4)CC1,4.66%
9,O=Cc1ccc(OC(=O)CCCCC(=O)Oc2ccc(C=O)cc2)cc1,21.7%
10,COc1ccc(NC(=O)C2CCCN(c3nccc(C)n3)C2)cc1 (stereo not shown),-3.13%
11,Cc1ccc(-c2nn(C)c(=O)c3ccccc23)cc1CN1CCOCC1,-1.21%
12,CC1CCCC(NC(=O)NC(=O)COC(=O)c2ccc(O)cc2O)C1C (stereo not shown),-13%
13,CCc1cccc(NC(=O)c2sc3nc4n(c(=O)c3c2C)CCC4)c1,-39%
14,Cc1cc2c(c(=O)n1C1CC1)C(c1cccc(Cl)c1)C(C#N)=C(N)O2 (stereo not shown),-20.6%
15,Cc1ccc(-c2nc(CS(=O)CC(=O)NC3CCCC(C)C3C)c(C)o2)cc1 (stereo not shown),-7.22%
16,COc1ccc(Cl)cc1NC(=O)CN(C)CC(=O)Nc1c(C)n(C)n(-c2ccccc2)c1=O,5.04%
17,C=C1SC(Nc2c(C)cccc2C)=NC12CCCCC2,13.9%
18,O=c1oc(-c2ccc(Br)o2)nc2ccccc12,26.2%
19,CN(c1ccccc1)S(=O)(=O)c1ccc(Cl)c(C(=O)NCCc2c[nH]c3ccccc23)c1,-15.8%
20,C[C@@H](NC(=O)/C(C#N)=C/c1ccc(O)c(O)c1)c1ccccc1,3.81%
21,CC(C)Nc1nc(SCC(N)=O)nc(N2CCOCC2)n1,16.6%
22,CCC1CCC2(CC1)NC(=O)N(CC(=O)Nc1cc(C)on1)C2=O (stereo not shown),7.8%
23,CCOc1ccccc1NC(=O)Cn1c(=O)n(-c2ccc(OC)cc2OC)c(=O)c2c(C)c(C(=O)N(CC)CC)sc21,11.2%
24,CCCC(=O)NC(Nc1c(C)n(C)n(-c2ccccc2)c1=O)C(Cl)(Cl)Cl (stereo not shown),-13.2%
25,O=c1oc2ccccc2nc1/C=C(\O)c1ccccc1,11.8%
26,Cc1cc(Oc2ccc(C#N)cc2)nc(NCc2ccccc2)n1,2.36%
27,Cc1ccc(-n2c(O)c(/C=N/N3CCCCC3c3cccnc3)c(=O)[nH]c2=S)cc1 (stereo not shown),-4.66%
